Measured values from PubChem BioAssay AID1468 (National Center for Advancing Translational Sciences (NCATS), 2008).
Out of some 280,000 compounds screened, about 1,100 (0.39%) were called active. Inconclusive results, whose numbers are uncertain, are shown with a selection of clear calls. Calls follow the shape of the dose curve; as a rule, active = well fitted inhibition curve with a large enough effect; inconclusive = small, poorly fitted or top-dose-only effect, or effect the other way; inactive = flat fitted curve, though single readings scatter. Potencies of inconclusive entries are left out as doubtful fits.

Each compound was assayed against Microtubule-associated protein tau (Homo sapiens) (UniProt P10636) (assay: qHTS for Inhibitors of Tau Fibril Formation, Fluorescence Polarization). Details: K18 P301L tau heparin fibrillization, Alexa594 FP, 6 h; series mostly up to 57.7 µM; activity, negative = inhibition: at the top concentration.
UniProt P10636, sequence (P10636 whole entry, looked up): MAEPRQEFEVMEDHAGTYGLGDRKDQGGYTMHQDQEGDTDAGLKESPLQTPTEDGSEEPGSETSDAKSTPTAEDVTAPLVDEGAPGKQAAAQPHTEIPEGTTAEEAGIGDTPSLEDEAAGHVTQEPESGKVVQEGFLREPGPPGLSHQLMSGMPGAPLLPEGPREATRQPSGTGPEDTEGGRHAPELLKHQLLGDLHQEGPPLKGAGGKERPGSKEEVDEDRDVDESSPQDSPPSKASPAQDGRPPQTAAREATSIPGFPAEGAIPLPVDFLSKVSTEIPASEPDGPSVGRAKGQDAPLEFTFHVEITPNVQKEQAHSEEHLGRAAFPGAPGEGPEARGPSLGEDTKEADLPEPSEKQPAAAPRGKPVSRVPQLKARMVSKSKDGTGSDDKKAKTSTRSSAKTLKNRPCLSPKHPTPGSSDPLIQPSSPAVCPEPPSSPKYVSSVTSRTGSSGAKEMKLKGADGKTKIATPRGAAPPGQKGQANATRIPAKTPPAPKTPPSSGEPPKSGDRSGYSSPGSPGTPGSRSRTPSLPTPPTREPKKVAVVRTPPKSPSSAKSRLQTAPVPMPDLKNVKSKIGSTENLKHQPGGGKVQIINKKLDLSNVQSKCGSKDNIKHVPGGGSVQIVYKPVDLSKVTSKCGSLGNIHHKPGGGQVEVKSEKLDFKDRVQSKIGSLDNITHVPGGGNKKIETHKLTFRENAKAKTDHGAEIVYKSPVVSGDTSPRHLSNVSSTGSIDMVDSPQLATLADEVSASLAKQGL
Outline: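 Heparin (20 uM) drove fibril formation of recombinant tau K18 P301L, 15 uM unlabeled with 0.24 uM Alexa 594 label, for 6 hr at 37 C in 100 mM sodium acetate pH 7. Fluorescence polarization (555/632 nm) read 1 hr after 30 uM ThT.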
% is scaled to controls: 0 for no effect and ±100 for the full control effect; potency is read from the fitted curve at half-maximal effect; tags tell the direction and shape of the fitted curve.
Also: nearly all actives have a fitted effect of over 55% in size.

Structure (SMILES) | Potency | activity, negative = inhibition
COc1cc(C/C=C\c2ccccc2)c(OC)cc1O | inconclusive [inhibitor, partial curve] | –
N#Cc1cccc(NC(=O)c2ccc3c(c2)N(Cc2cccc(Cl)c2)C(=O)c2ccccc2S3(=O)=O)c1 | active: 12.6 µM | –
Clc1ccc2c(NNc3ccccc3Cl)ccnc2c1 | inconclusive [inhibitor, single point] | –
Cc1ccc(C2C3=C(CC(C)(C)CC3=O)NC3=C2C(=O)CC(C)(C)C3)o1 | – | inactive: 4.05%
NC(=O)SCC(=O)Nc1ccc(Cl)c(Cl)c1 | inconclusive [inhibitor, partial curve, poor fit] | –
CCc1ccc(S(=O)(=O)c2nnn3c2nc(NCc2ccccc2OC)c2cc(Cl)ccc23)cc1 | inconclusive [inhibitor, partial curve] | –
CCc1ccc(NC(=O)CN(Cc2ccccc2)S(=O)(=O)c2ccc3nc(C)sc3c2)cc1 | – | inactive: -3.08%
COc1cc2c(cc1NC(=O)C(C)OC(=O)c1ccc(S(=O)(=O)Nc3ccccc3Cl)cc1)oc1ccccc12 (centres undefined) | inconclusive [inhibitor, partial curve] | –
CC1CCCC(NC(=S)Nc2ccc(SC(F)F)cc2)C1C (centres undefined) | inconclusive [inhibitor, partial curve] | –
COc1ccc(N(CC(=O)NCCSC2CCCCC2)S(C)(=O)=O)c(OC)c1 | – | inactive: 0.375%
COC(=O)c1ccccc1N/C=C1\CCc2c(c(C)nn2-c2ccccn2)C1=O | inconclusive [inhibitor, partial curve] | –
COc1cc(/C=C2/C(=O)c3cccc([N+](=O)[O-])c3C2=O)c(Br)cc1O | inconclusive [inhibitor, partial curve, poor fit] | –
CCOC(=O)c1c(-c2ccccc2)oc2ccc(NS(=O)(=O)c3ccc(C(C)C)cc3)cc12 | inconclusive [inhibitor, partial curve] | –
CCc1nc(Nc2ccc3c(c2)OCO3)c2oc3ccccc3c2n1 | inconclusive [activator, partial curve, poor fit] | –
CCc1ccc(S(=O)(=O)c2nnn(-c3cccc(C)c3)c2N)cc1 | – | inactive: -4.31%
O=C(c1cccnc1)N1N=C2CCCCCC2C1(O)C(F)(F)F (centres undefined) | – | inactive: -0.786%
O=C(CSc1ccc(Cl)cc1)Nc1cccc(NC(=O)c2ccco2)c1 | inconclusive [inhibitor, single point] | –
COc1ccc(OCC(O)Cn2c(Nc3cccc(C)c3)nc3c2c(=O)n(C)c(=O)n3C)cc1 (centres undefined) | inconclusive [activator, full curve] | –
CC(=O)N1CCc2c(sc3c2c(=O)n(Cc2ccccc2)c(=O)n3CC(=O)Nc2ccc(C)c(F)c2)C1 | active: 28.2 µM | –
O=C(Nc1ccc(Cl)cc1-c1nc2ccccc2s1)c1ccco1 | inconclusive [inhibitor, full curve, poor fit] | –
CCC(=O)Nc1cccc(C2=NOC3(C2)C[C@@H](C(N)=O)N(C(=O)C2(C)CC2)C3)c1 (some centres undefined) | inconclusive [inhibitor, single point] | –
COc1ccc(NC(=O)Cn2ccn(-c3ccccc3)c(=O)c2=O)cc1 | – | inactive: 2.87%

Structure (SMILES) | Potency | activity, negative = inhibition
CC1=CC2=NC(=O)/C(=C/c3cccs3)C(=N)N2O1 | inconclusive [inhibitor, single point] | –
CCN(CC)S(=O)(=O)c1cccc(NC(=O)/C=C/c2cccc([N+](=O)[O-])c2)c1 | – | inactive: -18.2%
Cc1nc2cc(N3CCCCC3)c(NC(=O)c3ccncc3)cc2c(=O)n1Cc1ccc(Cl)cc1 | – | inactive: 2.72%
Clc1ccccc1Cc1cn2cc(-c3ccccc3)nc2s1 | inconclusive [inhibitor, partial curve] | –
CCCCOc1ccc(C2=NC(c3ccccc3)=Nc3ccc(OC)cc3N2)cc1 | – | inactive: 6.39%
Cc1oc(S(=O)(=O)N2CCCCC2)cc1NC(=O)Nc1ccc(Cl)cc1 | inconclusive [inhibitor, partial curve] | –
O=C(COC(=O)c1c2c(nc3ccccc13)/C(=C\c1cccs1)CCC2)Nc1ccccc1Cl | inconclusive [inhibitor, single point] | –
Cc1ccc(NC(=O)c2ccc(F)c(S(=O)(=O)N3CCOCC3)c2)cc1F | inconclusive [inhibitor, single point] | –
O=C(CSc1nc2ccccc2c(=O)[nH]1)c1ccccc1 | inconclusive [inhibitor, single point] | –
O=S(=O)(c1ccc2ccccc2c1)N1CCN(C(=S)Nc2ccc(F)c(Cl)c2)CC1 | inconclusive [inhibitor, partial curve] | –
CCOC(=O)C1(CC)NC(c2ccc(N(C)C)cc2)C2C(=O)N(C)C(=O)C21 (centres undefined) | inconclusive [inhibitor, single point] | –
O=C(Cc1ccc(Cl)cc1Cl)Nc1ccc(OC(F)F)c(Cl)c1 | inconclusive [inhibitor, single point] | –
CCC(CC)C(=O)Nc1ccc2nc(SCC(=O)N3c4ccccc4CC3C)sc2c1 (centres undefined) | – | inactive: -12.8%
COC(=O)c1cc(OC)c(OC)cc1NC(=O)CSc1nnc(-c2cccnc2)n1C | inconclusive [inhibitor, single point] | –
N#CC1=C(S)N(c2ccccc2)C2(CCCCC2)NC1=O | inconclusive [inhibitor, single point] | –
Cc1ccc(C(=O)c2coc3c2C(=O)C(=O)c2ccccc2-3)cc1 | inconclusive [inhibitor, full curve] | –
COc1ccc(Cl)cc1NC(=O)c1c(NCc2ccc(C)o2)sc2c1CCCC2 | inconclusive [inhibitor, single point] | –
CN1CCN(C(CNC(=O)C(=O)Nc2cccc(Cl)c2)c2ccc3c(c2)OCO3)CC1 (centres undefined) | – | inactive: 4.34%
CC1=C(C(=O)Nc2ccc(C)cc2C)C(c2ccccc2F)n2nc(SCC(=O)c3ccc(C)cc3)nc2N1 (centres undefined) | inconclusive [inhibitor, full curve] | –
O=C(Nc1ccc(S(=O)(=O)N2CCCCCC2)cc1)c1cc(=O)c2ccccc2o1 | inconclusive [inhibitor, partial curve] | –
Cc1cc(-n2c(C)nc3ccccc3c2=O)ccc1NC(=O)c1ccc([N+](=O)[O-])cc1 | inconclusive [inhibitor, single point] | –
Cc1oc(C)c2c(=O)ccc3c(c12)OC(N)=C(C#N)C3c1ccc(F)cc1 (centres undefined) | inconclusive [inhibitor, single point] | –

Structure (SMILES) | Potency | activity, negative = inhibition
COc1cc(NS(=O)(=O)c2ccc(N/C=C\C(=O)c3ccc(OC)c(OC)c3)cc2)nc(OC)n1 | inconclusive [activator, full curve, poor fit] | –
Cc1ccc(NC(=O)Cn2c(=O)n(Cc3ccc4c(c3)OCO4)c(=O)c3ccc(C(=O)NC4CCCCC4)cc32)c(C)c1 | inconclusive [inhibitor, single point] | –
Cc1ccc2[nH]c(=O)c3cc(C(=O)NCCc4ccc(Cl)cc4)sc3c2c1 | inconclusive [inhibitor, partial curve] | –
O=C(c1ccc2c(c1)N(Cc1cccc(Cl)c1)C(=O)c1ccccc1S2)N1CCOCC1 | – | inactive: 10.5%
CCc1ccc(S(=O)(=O)c2nnn3c2nc(NCCNC(C)=O)c2cc(Cl)ccc23)cc1 | inconclusive [inhibitor, partial curve] | –
COc1ccc(/C=N/Nc2ncnc3sc4c(c23)CCCC4)cc1OC | – | inactive: 12.6%
O=C(NC(=S)Nc1ccccc1Cl)c1cncc(C#Cc2ccccc2)c1 | inconclusive [inhibitor, single point] | –
CCCCCNC(=O)c1c[nH]c2ccc(S(=O)(=O)N3CCC4(CC3)OCCO4)cc2c1=O | inconclusive [inhibitor, partial curve, poor fit] | –
C#CCSc1nnc(CSc2nc3ccccc3s2)n1-c1ccccc1 | – | inactive: -0.12%
c1cnc2ccc(C(c3nnnn3C3CCCC3)N3CCN(c4nc5ccccc5s4)CC3)cc2c1 (centres undefined) | inconclusive [inhibitor, single point] | –
Cc1ccc(S(=O)(=O)c2nnn3c2nc(NCc2ccccc2Cl)c2sccc23)cc1 | inconclusive [inhibitor, partial curve] | –
CCOC(=O)c1c(NC(=O)CSc2cn(CCNC(=O)c3ccccc3F)c3ccccc23)sc2c1CCCC2 | – | inactive: -20%
O=C(NCc1ccco1)c1cc2c(s1)CSC2 | inconclusive [inhibitor, single point] | –
Cc1cc2oc(C(=O)Nc3ccc(S(=O)(=O)N4CCCC(C)C4)cc3)cc(=O)c2cc1Cl (centres undefined) | inconclusive [inhibitor, single point] | –
COc1ccc(Cl)cc1C(=O)Nc1ccc2c(c1)OCO2 | inconclusive [inhibitor, full curve, poor fit] | –
Cc1occc1C(=O)n1nnc2ccccc21 | – | inactive: 8.26%
O=C1c2ccccc2-c2onc3c(NCCO)cc(NC4CCCCC4)c1c23 | inconclusive [inhibitor, single point] | –
CCc1ccc(NC(=O)c2nn(-c3ccc(OC)cc3)c(=O)c3c2c2ccccc2n3C)cc1 | inconclusive [inhibitor, full curve, poor fit] | –
CCCCOc1ccccc1NC(=O)c1scc2c1OCCO2 | inconclusive [inhibitor, full curve, poor fit] | –
COc1ccc(-c2nn(-c3ccccc3)cc2/C=N/N2C(=O)CSC2=S)cc1 | inconclusive [activator, partial curve] | –
